Test results taken from publication PMC10439913, “Non-glycosylated IGF2 prohormones are more mitogenic than native IGF2” (Communications Biology, 2023).

Columns and labels:
[1] = target: T1, mannose-6-phosphate/IGF2 receptor (M6P/IGF2R), native in R- cells (mouse (endogenous in R- cells), UniProt Q07113 36-2483); assay: radioligand binding; competition of cold ligand (10^-12-10^-6 M) with [125I]-monoiodotyrosyl-Tyr2-IGF2 (43,000 cpm) for M6P/IGF2R on R- cells; 16 h at 5 °C, 100 mM HEPES pH 7.6, 100 mM NaCl, 1% BSA; affinity relative to IGF2; settings: one partner purified
T1 construct: cation-independent mannose-6-phosphate receptor / IGF2 receptor, native on R- cells (3T3-like fibroblasts from mouse embryos); source: endogenous, R- cells (mouse embryo fibroblasts with disrupted Igf1r), whole cells
T1 sequence (Q07113 36-2483): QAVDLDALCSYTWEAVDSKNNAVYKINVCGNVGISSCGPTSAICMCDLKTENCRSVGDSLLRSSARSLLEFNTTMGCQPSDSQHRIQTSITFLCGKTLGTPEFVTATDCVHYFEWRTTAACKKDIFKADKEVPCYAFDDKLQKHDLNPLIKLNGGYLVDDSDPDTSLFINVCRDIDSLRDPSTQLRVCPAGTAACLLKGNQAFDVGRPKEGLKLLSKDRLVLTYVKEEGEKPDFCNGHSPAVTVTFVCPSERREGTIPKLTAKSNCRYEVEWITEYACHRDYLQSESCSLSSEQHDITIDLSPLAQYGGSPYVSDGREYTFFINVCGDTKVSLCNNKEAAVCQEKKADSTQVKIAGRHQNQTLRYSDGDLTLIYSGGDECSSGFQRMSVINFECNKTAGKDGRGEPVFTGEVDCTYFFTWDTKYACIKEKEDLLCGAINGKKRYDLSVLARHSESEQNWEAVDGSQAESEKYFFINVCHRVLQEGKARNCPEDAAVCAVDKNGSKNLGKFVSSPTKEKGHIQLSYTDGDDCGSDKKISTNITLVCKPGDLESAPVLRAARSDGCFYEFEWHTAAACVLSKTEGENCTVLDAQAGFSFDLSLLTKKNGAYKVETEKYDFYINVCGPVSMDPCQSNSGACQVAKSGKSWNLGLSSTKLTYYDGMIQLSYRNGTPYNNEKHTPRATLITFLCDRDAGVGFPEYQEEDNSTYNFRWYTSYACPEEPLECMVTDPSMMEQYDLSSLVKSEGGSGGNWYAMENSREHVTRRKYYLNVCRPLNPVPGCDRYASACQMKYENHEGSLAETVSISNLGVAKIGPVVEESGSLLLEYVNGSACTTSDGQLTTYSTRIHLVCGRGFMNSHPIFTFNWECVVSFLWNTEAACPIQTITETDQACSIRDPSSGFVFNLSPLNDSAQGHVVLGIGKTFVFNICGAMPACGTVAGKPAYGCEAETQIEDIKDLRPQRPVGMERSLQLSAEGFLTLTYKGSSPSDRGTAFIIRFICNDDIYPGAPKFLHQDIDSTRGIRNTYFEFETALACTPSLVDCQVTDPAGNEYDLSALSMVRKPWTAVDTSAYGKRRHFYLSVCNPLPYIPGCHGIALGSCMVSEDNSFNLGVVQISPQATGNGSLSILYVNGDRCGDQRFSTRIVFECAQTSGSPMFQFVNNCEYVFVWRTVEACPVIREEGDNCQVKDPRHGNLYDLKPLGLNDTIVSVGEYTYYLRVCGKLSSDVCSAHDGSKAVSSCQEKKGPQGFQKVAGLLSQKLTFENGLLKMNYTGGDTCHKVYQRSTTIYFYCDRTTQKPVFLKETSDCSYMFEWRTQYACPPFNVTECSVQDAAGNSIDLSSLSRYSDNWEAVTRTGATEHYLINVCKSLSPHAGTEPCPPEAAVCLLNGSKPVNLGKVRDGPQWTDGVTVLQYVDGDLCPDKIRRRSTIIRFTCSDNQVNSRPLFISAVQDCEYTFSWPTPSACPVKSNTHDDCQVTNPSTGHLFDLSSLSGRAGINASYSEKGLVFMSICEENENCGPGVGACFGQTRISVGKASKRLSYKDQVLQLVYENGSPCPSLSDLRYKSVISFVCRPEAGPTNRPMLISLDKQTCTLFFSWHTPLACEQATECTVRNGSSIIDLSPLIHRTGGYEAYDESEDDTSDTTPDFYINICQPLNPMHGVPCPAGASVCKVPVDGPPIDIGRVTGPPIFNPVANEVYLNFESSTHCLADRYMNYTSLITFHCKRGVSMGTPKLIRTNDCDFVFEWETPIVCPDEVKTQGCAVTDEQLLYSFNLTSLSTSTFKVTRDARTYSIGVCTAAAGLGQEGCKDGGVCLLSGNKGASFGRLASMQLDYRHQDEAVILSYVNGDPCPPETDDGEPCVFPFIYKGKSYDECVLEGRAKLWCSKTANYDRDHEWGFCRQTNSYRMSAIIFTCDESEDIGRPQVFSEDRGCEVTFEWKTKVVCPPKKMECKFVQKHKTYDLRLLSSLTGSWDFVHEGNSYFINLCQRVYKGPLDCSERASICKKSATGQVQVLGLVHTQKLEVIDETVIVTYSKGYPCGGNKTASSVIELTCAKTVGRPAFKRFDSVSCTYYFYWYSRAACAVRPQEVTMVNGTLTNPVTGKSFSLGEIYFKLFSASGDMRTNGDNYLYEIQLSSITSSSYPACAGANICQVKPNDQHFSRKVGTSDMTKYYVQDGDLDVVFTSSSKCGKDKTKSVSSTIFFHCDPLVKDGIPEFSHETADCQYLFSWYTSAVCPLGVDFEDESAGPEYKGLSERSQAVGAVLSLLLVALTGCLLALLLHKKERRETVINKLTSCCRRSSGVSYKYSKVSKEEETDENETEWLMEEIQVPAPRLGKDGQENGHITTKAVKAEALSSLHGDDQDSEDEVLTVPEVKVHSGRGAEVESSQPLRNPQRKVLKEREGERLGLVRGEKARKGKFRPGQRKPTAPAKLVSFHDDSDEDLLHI

[2] = target: T2, insulin receptor isoform B (IR-B) (human, UniProt P06213-1); assay: radioligand binding; competition of cold ligand with [125I]-monoiodotyrosyl-TyrA14-insulin for human IR-B on transfected mouse fibroblasts; one-site fit; affinity relative to human insulin; settings: one partner purified
T2 construct: insulin receptor, isoform B, human, on transfected mouse fibroblasts; source: mouse fibroblasts with deleted mouse IGF-1R, stably transfected with human IR-B (R-/IR-B), whole cells

His-tagged IGFBP3 = target: T3, His-tagged IGFBP3 (UniProt P17936); assay: radioligand binding; competition of cold ligand (10^-12-10^-6 M) with [125I]-monoiodotyrosyl-Tyr2-IGF2 (43,000 cpm) for His-tagged IGFBP3 immobilized via neutravidin and Ni-NTA iBodies; 16 h at 5 °C, HEPES pH 7.6; affinity relative to IGF2; settings: both partners purified
Sequence of His-tagged IGFBP3 (P17936 28-291): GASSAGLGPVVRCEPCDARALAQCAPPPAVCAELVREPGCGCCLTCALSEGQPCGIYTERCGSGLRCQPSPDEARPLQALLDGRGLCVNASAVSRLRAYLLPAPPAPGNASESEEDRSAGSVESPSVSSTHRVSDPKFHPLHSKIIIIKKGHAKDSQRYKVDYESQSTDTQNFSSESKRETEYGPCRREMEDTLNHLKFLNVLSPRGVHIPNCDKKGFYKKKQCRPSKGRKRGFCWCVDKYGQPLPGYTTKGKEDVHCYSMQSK
T3 construct: also called IGBP3; source: bought: Sino Biological

IGF1 receptor (IGF1R) = target: T4, IGF1 receptor (IGF1R) (human, UniProt P08069 31-1367); assay: radioligand binding; competition of cold ligand with [125I]-iodotyrosyl-IGF1 for human IGF-1R on R+39 mouse fibroblasts; one-site fit; affinity relative to IGF1; settings: one partner purified
T4 construct: insulin-like growth factor 1 receptor, human, on R+39 cells; source: mouse fibroblasts with deleted mouse IGF-1R, transfected with human IGF-1R (R+39 cells), whole cells

[3] = target: T5, insulin receptor isoform A (IR-A) (human, UniProt P06213-2); assay: radioligand binding; competition of cold ligand with [125I]-monoiodotyrosyl-TyrA14-insulin for human IR-A on whole IM-9 lymphocytes; one-site fit; affinity relative to human insulin; settings: one partner purified
T5 construct: The phosphorylation assays used mouse fibroblasts transfected with human IR-A (R-/IR-A), not IM-9 cells; source: endogenous, human IM-9 lymphocytes (whole cells)

| Binder | relative binding affinity (% of IGF2) [1] [%] | relative binding affinity (% of human insulin) [2] [%] | relative binding affinity (% of IGF2) (His-tagged IGFBP3) [%] | relative binding affinity (% of IGF1) (IGF1 receptor (IGF1R)) [%] | relative binding affinity (% of human insulin) [3] [%] |
| --- | --- | --- | --- | --- | --- |
| pro-IGF2(156) (ligand, source: non-glycosylated; not shown: His6, N-terminal, cleaved; GB1, N-terminal, cleaved) not shown | 20 | 1.6 | 16 | 0.35 | 2.2 |
| glycosylated pro-IGF2(156) (ligand, glycosylated (sites and glycans not given), source: bought: Biomol (No. 97562)) not shown | < 1 | – | 18 | 0.2 | 2 |
